According to PMC4336329 (PLoS ONE, 2015):
Among all 310,000 compounds or so, about 14,000 (4.5%) showed an effect of 50% or more. The effect is printed as a negative number. This is one part of the list.
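Further: peak tail current of the secondary pulse compared with the same well before compound.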

What follows are compounds tested against human ether-à-go-go-related gene (hERG) potassium channel (human, UniProt Q12809) (assay: primary screen, population patch clamp on CHO cells stably expressing hERG).
Chain of human ether-à-go-go-related gene (hERG) potassium channel (Q12809 whole entry, looked up): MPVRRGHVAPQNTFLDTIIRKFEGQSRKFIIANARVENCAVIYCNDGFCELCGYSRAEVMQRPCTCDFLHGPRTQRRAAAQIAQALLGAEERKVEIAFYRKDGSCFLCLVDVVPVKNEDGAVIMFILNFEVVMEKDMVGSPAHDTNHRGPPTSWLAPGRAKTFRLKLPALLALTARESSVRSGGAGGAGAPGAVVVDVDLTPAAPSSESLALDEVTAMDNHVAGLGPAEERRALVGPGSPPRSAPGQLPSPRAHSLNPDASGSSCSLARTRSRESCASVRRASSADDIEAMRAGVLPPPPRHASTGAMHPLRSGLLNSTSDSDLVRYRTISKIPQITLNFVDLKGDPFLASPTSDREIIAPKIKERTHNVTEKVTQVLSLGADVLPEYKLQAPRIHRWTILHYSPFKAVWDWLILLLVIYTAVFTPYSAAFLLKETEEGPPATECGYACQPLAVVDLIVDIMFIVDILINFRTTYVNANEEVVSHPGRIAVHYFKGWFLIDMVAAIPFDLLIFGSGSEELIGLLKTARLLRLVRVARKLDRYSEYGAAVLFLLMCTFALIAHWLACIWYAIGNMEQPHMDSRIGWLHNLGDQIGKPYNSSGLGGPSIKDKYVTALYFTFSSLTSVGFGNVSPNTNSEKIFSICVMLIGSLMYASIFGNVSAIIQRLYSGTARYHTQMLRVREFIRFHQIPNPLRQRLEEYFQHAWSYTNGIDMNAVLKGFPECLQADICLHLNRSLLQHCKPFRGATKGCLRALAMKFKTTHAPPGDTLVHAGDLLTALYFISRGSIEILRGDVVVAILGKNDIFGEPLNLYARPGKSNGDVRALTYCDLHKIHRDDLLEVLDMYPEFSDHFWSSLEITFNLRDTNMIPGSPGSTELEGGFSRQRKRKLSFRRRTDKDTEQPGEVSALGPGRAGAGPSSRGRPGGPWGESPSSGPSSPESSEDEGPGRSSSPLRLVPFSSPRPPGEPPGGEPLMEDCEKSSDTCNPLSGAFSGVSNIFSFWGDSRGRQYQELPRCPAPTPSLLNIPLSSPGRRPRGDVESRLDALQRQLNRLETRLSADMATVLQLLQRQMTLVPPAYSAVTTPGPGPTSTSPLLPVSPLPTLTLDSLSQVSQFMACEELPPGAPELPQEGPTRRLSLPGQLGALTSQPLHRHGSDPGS
In the case of `Nc1cccc2c1C(=O)N(C(=O)c1cccc(S(=O)(=O)N3CCCC3)c1)C2=O`, the “hERG current change (%, negative = inhibition) at 10uM” value is reported as -0.76%.
`COc1ccc(Cl)cc1N(CC(=O)N1CCN(Cc2ccccc2)CC1)S(C)(=O)=O` was tested, and the “hERG current change (%, negative = inhibition) at 10uM” value was -7.28%.
With `COc1ccc(N(CC(=O)NCCc2ccccc2)C(=O)c2csnn2)cc1OC` the “hERG current change (%, negative = inhibition) at 10uM” value was 11.1%.
In the case of `Cc1ccc(OCC(=O)N(Cc2cccc(F)c2)C2CCS(=O)(=O)C2)cc1` (centres unmarked), the “hERG current change (%, negative = inhibition) at 10uM” value is reported as -16.8%.
With `CCOC(=O)C1=CC[C@]2(C)c3c(c4ccccc4n3C)C(=O)C1N2C` the “hERG current change (%, negative = inhibition) at 10uM” value was 21.7%.
`Br.Cc1c(-c2ccc(O)cc2)nc2nc(-c3ccccc3)c(-c3ccccc3)nn12` was tested, and the “hERG current change (%, negative = inhibition) at 10uM” value was 7.29%.
For `CSc1sc(C)cc1C1C(C#N)=C(N)N(c2cccnc2)C2=C1C(=O)CCC2` (centres unmarked), the “hERG current change (%, negative = inhibition) at 10uM” value was -21.7%.
In the case of `CCC(NC(=O)CCc1c(C)c2cc3c(-c4ccccc4)coc3cc2oc1=O)C(=O)O` (centres unmarked), the “hERG current change (%, negative = inhibition) at 10uM” value is reported as 6.68%.
For `CCOC(=O)C1=C(CSc2nc(-c3ccncc3)ccc2C#N)OC(N)=C(C#N)C1c1cccnc1` (centres unmarked), the “hERG current change (%, negative = inhibition) at 10uM” value was -47.2%.
For `COc1ccccc1-n1cnnc1SCC(=O)Nc1ncc(Cl)cc1Cl`, the “hERG current change (%, negative = inhibition) at 10uM” value was -0.265%.
For `CCc1ccc(CN2CCC(C(=O)Nc3cccc(-c4nnc(C)s4)c3)CC2)o1`, the “hERG current change (%, negative = inhibition) at 10uM” value was -33.6%.
For `COc1ccc(N2C(=O)NC(NS(=O)(=O)c3ccc(NC(C)=O)cc3)(C(F)(F)F)C2=O)cc1` (centres unmarked), the “hERG current change (%, negative = inhibition) at 10uM” value was 10.3%.
For `O=C(CS(=O)(=O)c1ccc(F)cc1)NCc1ccccc1`, the “hERG current change (%, negative = inhibition) at 10uM” value was 24.5%.
In the case of `Cc1ccc(C)c(NC(=O)NNC(=O)c2cc3occc3[nH]2)c1`, the “hERG current change (%, negative = inhibition) at 10uM” value is reported as 18.3%.
`CCOC(=O)N1CCC(n2c(SCC(=O)c3ccccc3)nc3ccsc3c2=O)CC1` was tested, and the “hERG current change (%, negative = inhibition) at 10uM” value was -10.1%.
With `CC(=O)N1CCN(Cc2nc3cc(Cl)ccc3c(=O)[nH]2)CC1` the “hERG current change (%, negative = inhibition) at 10uM” value was -31.7%.
`O=C(CSc1nnc(CCCOc2ccc(Cl)cc2Cl)o1)Nc1ccc(C(=O)O)cc1` was tested, and the “hERG current change (%, negative = inhibition) at 10uM” value was 15.2%.
With `CC1CCCCN1Cc1c(C#N)c2ccccc2n1C` (centres unmarked) the “hERG current change (%, negative = inhibition) at 10uM” value was 0.574%.
For `CCCc1cc(=O)[nH]c(SCCN2C(=O)c3ccccc3C2=O)n1`, the “hERG current change (%, negative = inhibition) at 10uM” value was -3.72%.
In the case of `O=C(c1cccc(Br)c1)N1CCN(S(=O)(=O)N2CCCCC2)CC1`, the “hERG current change (%, negative = inhibition) at 10uM” value is reported as -15.9%.
With `COc1ccc(C(=O)Nc2nc3ccccc3s2)c(OC)c1` the “hERG current change (%, negative = inhibition) at 10uM” value was 15.6%.
For `COc1ccccc1N(CCC#N)C(=O)COC(=O)CCC(=O)c1ccc(F)cc1`, the “hERG current change (%, negative = inhibition) at 10uM” value was -2.98%.
For `COc1ccc(OC)c(NC(=O)c2ccccc2NC(=O)c2ccco2)c1`, the “hERG current change (%, negative = inhibition) at 10uM” value was -75.6%.
In the case of `CCCn1c(-c2ccccc2)nc2c(=O)n(C)c(=O)[nH]c21`, the “hERG current change (%, negative = inhibition) at 10uM” value is reported as -4.43%.
For `CC(CCc1ccccc1)NC(=O)C1CCC1` (centres unmarked), the “hERG current change (%, negative = inhibition) at 10uM” value was -1.35%.
`Cc1ccc(C(c2nnnn2C(C)(C)C)N2CCN(C3CCCC3)CC2)cc1` (centres unmarked) was tested, and the “hERG current change (%, negative = inhibition) at 10uM” value was -12.8%.
For `Cc1nnc(SCC(=O)Nc2cccc(S(=O)(=O)N3CCCCC3)c2)s1`, the “hERG current change (%, negative = inhibition) at 10uM” value was -27.4%.
`C=CCN1C(=O)C(C(C)CC)NC1=S` (centres unmarked) was tested, and the “hERG current change (%, negative = inhibition) at 10uM” value was -6.42%.
With `O=C(O)c1ccccc1OCCOc1ccccc1` the “hERG current change (%, negative = inhibition) at 10uM” value was 3.63%.
`COc1ccc(OC)c(CCNC(=O)CCc2nnc3ccc(N4CCCC4)nn23)c1` was tested, and the “hERG current change (%, negative = inhibition) at 10uM” value was -23.9%.
`Cc1cc(C)cc(N2CN=C3SCC(=O)N3C2)c1` was tested, and the “hERG current change (%, negative = inhibition) at 10uM” value was -11.4%.
In the case of `CCN1CCN(C(=O)c2ccc(OC)c(S(=O)(=O)Nc3ccc(C)cc3)c2)CC1`, the “hERG current change (%, negative = inhibition) at 10uM” value is reported as -18.4%.
In the case of `CCCc1ccccc1OCCNS(=O)(=O)c1cc2c(cc1C)OCC(=O)N2`, the “hERG current change (%, negative = inhibition) at 10uM” value is reported as 1.01%.
For `Cn1nc(N)c2c(-c3ccccc3)c(C#N)c(N)nc21`, the “hERG current change (%, negative = inhibition) at 10uM” value was 7.4%.
For `COc1ccccc1C(=O)Nc1ccc2c(c1)CC1(C(=O)N(C)C(=O)N(C)C1=O)C1CCCN21` (centres unmarked), the “hERG current change (%, negative = inhibition) at 10uM” value was -26.9%.
In the case of `CCCc1cc(=O)oc2cc(OCC(=O)NCc3ccccn3)ccc12`, the “hERG current change (%, negative = inhibition) at 10uM” value is reported as -12.4%.
With `Cc1ccc(S(=O)(=O)N2CCOCC2)cc1C(=O)NCc1ccc2c(c1)OCO2` the “hERG current change (%, negative = inhibition) at 10uM” value was -27.6%.
For `O=C(Oc1coc(CSc2ncccn2)cc1=O)c1ccccc1[N+](=O)[O-]`, the “hERG current change (%, negative = inhibition) at 10uM” value was 14.4%.
In the case of `COc1cc2c(cc1OC)CN(Cc1cc(=O)oc3cc(C)c(C)cc13)CC2`, the “hERG current change (%, negative = inhibition) at 10uM” value is reported as -37.6%.
For `CC1=NN(C(N)=S)C(=O)C1N=Nc1cccc2ccccc12` (centres unmarked), the “hERG current change (%, negative = inhibition) at 10uM” value was 25.4%.
`Cc1cc(C)cc(C(=O)NCc2ccc3c(c2)OCO3)c1` was tested, and the “hERG current change (%, negative = inhibition) at 10uM” value was 16.2%.
With `Cc1ccccc1C1=NC(c2ccc(F)cc2F)ON1` (centres unmarked) the “hERG current change (%, negative = inhibition) at 10uM” value was -4.54%.
With `O=C(NCc1cccs1)c1noc2c1CCCC2` the “hERG current change (%, negative = inhibition) at 10uM” value was -2.52%.
For `O=C(CCCCCN1C(=O)[C@@H]2Cc3ccccc3CN2C1=O)Nc1ccccc1Cl`, the “hERG current change (%, negative = inhibition) at 10uM” value was -15.5%.
In the case of `O=C(Nc1ccccc1NS(=O)(=O)c1ccc(F)cc1)C1CCC1`, the “hERG current change (%, negative = inhibition) at 10uM” value is reported as 11.3%.
`COc1ccc(-n2c(C)nc3c(cnn3-c3ccc(Cl)cc3)c2=O)cc1` was tested, and the “hERG current change (%, negative = inhibition) at 10uM” value was 3.26%.
In the case of `COC(=O)c1cnn2c(C)c(Cc3cccc(F)c3)c(C)nc12`, the “hERG current change (%, negative = inhibition) at 10uM” value is reported as -10.4%.
In the case of `O=C(c1ccc(S(=O)(=O)N2CCOCC2)cc1)N1CCN(c2ccccc2)CC1`, the “hERG current change (%, negative = inhibition) at 10uM” value is reported as -15.7%.
With `CN=Cc1sc2ccccc2c1O` the “hERG current change (%, negative = inhibition) at 10uM” value was 3.96%.
`CS(=O)(=O)N1CCc2cc(C(=O)N3CCN(c4ccccc4)CC3)ccc21` was tested, and the “hERG current change (%, negative = inhibition) at 10uM” value was -4.75%.
